{"source": "ChEMBL document CHEMBL5724801", "about": "“EUbOPEN Chemogenomics Library - Multiplex” (2024)", "assay_type_in_all_cases": "toxicity, cell-based", "key": {"U2OS": {"test_system": "U2OS", "assay": "Multiplex assay against U2OS", "conditions": "human", "how_it_was_run": "(§1)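 Live cells carried four stains from seeding: Hoechst33342, BioTracker Green Microtubule Cytoskeleton Dye, MitoTracker Red and Annexin V Alexa Fluor 680. They were imaged on a CQ1 microscope at 37°C and 5% CO2 after compound addition. Using CellPathfinder machine-learning gating, cells were split into Hoechst high-intensity objects or normal cells, normal cells into healthy, pyknosed or fragmented nuclei, and pyknosed cells into mitotic or apoptotic; tubulin, mitochondrial-mass and membrane-permeability phenotypes are per cents of healthy-nucleus cells.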"}, "Fibroblast": {"test_system": "Fibroblast", "assay": "Multiplex assay against human fibroblast", "how_it_was_run": "as §1"}, "HEK-293T": {"test_system": "HEK-293T", "assay": "Multiplex assay against HEK293T", "conditions": "human", "how_it_was_run": "as §1"}, "[1]": {"conditions": "24 h, 1 µM, compound concentration 1 uM"}, "[2]": {"conditions": "24 h, 10 µM, compound concentration 10 uM"}, "[3]": {"conditions": "48 h, 10 µM, compound concentration 10 uM"}, "[4]": {"conditions": "12 h, 10 µM, compound concentration 10 uM"}, "[5]": {"conditions": "48 h, 1 µM, compound concentration 1 uM"}, "[6]": {"conditions": "12 h, 1 µM, compound concentration 1 uM"}}, "note": "Some entries of the source have several records that differ or are many. The other results are left out here. An entry can have further records. The records of an entry are repeats in other runs, samples, wells, individuals or studies."}
{"smiles": "Cc1nn(C)c2nc(NNC(=O)Nc3cc(Cl)nc(Cl)c3)cc(C(C)C)c12", "values": [{"measurement": "Population Mitotic Cells (%)", "setting": "U2OS; [1]", "value": "19% and 6%"}, {"measurement": "Population Mitochondria Different-Phenotype (%)", "setting": "Fibroblast; [2]", "value": "22% and 6%"}, {"measurement": "Population Mitochondria Different-Phenotype (%)", "setting": "Fibroblast; [3]", "value": "31% and 5%"}, {"measurement": "Population Mitotic Cells (%)", "setting": "Fibroblast; [3]", "value": "6% and 37%"}]}
{"smiles": "CCCN1CCC[C@@H]2Cc3n[nH]cc3C[C@H]21.Cl", "note": "[QUINPIROLE HYDROCHLORIDE]", "values": [{"measurement": "Population Mitotic Cells (%)", "setting": "U2OS; [4]", "value": "41% and 0%"}, {"measurement": "Population Tubulin-Different-Phenotype (%)", "setting": "Fibroblast; [1]", "value": "13% and 41%"}]}
{"smiles": "CC(/C=C1\\SC(=S)N(CCCC(=O)Nc2ccc(C(=O)O)c(O)c2)C1=O)=C\\c1ccccc1", "values": [{"measurement": "Population Mitotic Cells (%)", "setting": "U2OS; [4]", "value": "8% and 27%"}, {"measurement": "Population Mitotic Cells (%)", "setting": "U2OS; [1]", "value": "16% and 5%"}, {"measurement": "Population Mitotic Cells (%)", "setting": "U2OS; [2]", "value": "11% and 46%"}, {"measurement": "Population Mitotic Cells (%)", "setting": "U2OS; [5]", "value": "6% and 21%"}, {"measurement": "Population Mitotic Cells (%)", "setting": "U2OS; [3]", "value": "2% and 17%"}, {"measurement": "Population Pyknosed Nuclei (%)", "setting": "Fibroblast; [2]", "value": "7% and 26%"}]}
{"smiles": "CC(=O)Nc1cccc2c1c(Sc1ccc(Cl)cc1)c(C)n2CC(=O)O", "note": "[AZD1981]", "values": [{"measurement": "Total Cell Count", "setting": "U2OS; [6]", "value": "253 and 82"}, {"measurement": "Population Mitotic Cells (%)", "setting": "U2OS; [1]", "value": "8% and 50%"}, {"measurement": "Population Membrane Permeable-Phenotype (%)", "setting": "Fibroblast; [6]", "value": "2% and 14%"}, {"measurement": "Population Membrane Permeable-Phenotype (%)", "setting": "Fibroblast; [2]", "value": "2% and 14%"}]}
{"smiles": "COc1c(Nc2ccc(S(C)(=O)=O)nc2C)ncnc1OC1CCN(C(=O)OC(C)C)CC1", "note": "[ADP-597]", "values": [{"measurement": "Population Hoechst High Intensity Objects (%)", "setting": "HEK-293T; [4]", "value": "8% and 25%"}]}
{"smiles": "Cc1cccc(F)c1C(=O)Nc1cnc(-c2cc3c(cc2Cl)OC(F)(F)O3)cn1", "note": "[ZEGOCRACTIN]", "values": [{"measurement": "Total Cell Count", "setting": "U2OS; [6]", "value": "375 and 121"}, {"measurement": "Population Mitochondria Different-Phenotype (%)", "setting": "U2OS; [4]", "value": "0.6% and 22.38%"}, {"measurement": "Total Cell Count", "setting": "U2OS; [1]", "value": "520 and 163"}, {"measurement": "Population Mitochondria Different-Phenotype (%)", "setting": "U2OS; [2]", "value": "0.75% and 18.75%"}, {"measurement": "Total Cell Count", "setting": "U2OS; [5]", "value": "1011 and 264"}, {"measurement": "Population Mitochondria Different-Phenotype (%)", "setting": "U2OS; [3]", "value": "0.9% and 14.53%"}, {"measurement": "Population Fragmented Nuclei (%)", "setting": "HEK-293T; [6]", "value": "12.4% and 1.99%"}, {"measurement": "Population Tubulin-Different-Phenotype (%)", "setting": "HEK-293T; [6]", "value": "1.28% and 20.83%"}, {"measurement": "Total Cell Count", "setting": "HEK-293T; [1]", "value": "497 and 164"}, {"measurement": "Population Healthy Nuclei (%)", "setting": "HEK-293T; [2]", "value": "38.26% and 11.25%"}, {"measurement": "Population Tubulin-Different-Phenotype (%)", "setting": "HEK-293T; [2]", "value": "57.43% and 11.11%"}, {"measurement": "Population Tubulin-Different-Phenotype (%)", "setting": "HEK-293T; [5]", "value": "1.51% and 34.71%"}, {"measurement": "Total Cell Count", "setting": "HEK-293T; [5]", "value": "987 and 213"}, {"measurement": "Population Tubulin-Different-Phenotype (%)", "setting": "HEK-293T; [3]", "value": "9.2% and 44.64%"}]}
{"smiles": "CCCCCC(O)/C=C/[C@H]1C(=O)CC(O)C1C/C=C\\CCCC(=O)O", "note": "(stereo partly specified)", "values": [{"measurement": "Population Mitotic Cells (%)", "setting": "U2OS; [6]", "value": "40% and 11%"}, {"measurement": "Population Mitochondria Different-Phenotype (%)", "setting": "Fibroblast; [6]", "value": "4% and 20%"}, {"measurement": "Population Tubulin-Different-Phenotype (%)", "setting": "Fibroblast; [3]", "value": "14% and 47%"}]}
{"smiles": "OCCCNc1cc(-c2ccnc(Nc3cccc(Cl)c3)n2)ccn1", "values": [{"measurement": "Population Mitochondria Different-Phenotype (%)", "setting": "U2OS; [6]", "value": "4% and 18%"}, {"measurement": "Population Mitochondria Different-Phenotype (%)", "setting": "Fibroblast; [2]", "value": "46% and 9%"}]}
{"smiles": "CCOc1c2c(c(OCC)c3ncccc13)CN(c1ccc(CS(=O)(=O)NC(=O)Cc3ccccc3OC)cc1C)C2=O", "values": [{"measurement": "Population Mitotic Cells (%)", "setting": "U2OS; [6]", "value": "35% and 0%"}, {"measurement": "Population Membrane Permeable-Phenotype (%)", "setting": "Fibroblast; [1]", "value": "2% and 18%"}]}
{"smiles": "O=C(Nc1cc(-c2ccccc2)nn1-c1ccccc1F)c1ccc([N+](=O)[O-])cc1", "values": [{"measurement": "Population Mitotic Cells (%)", "setting": "U2OS; [4]", "value": "33% and 5%"}, {"measurement": "Population Fragmented Nuclei (%)", "setting": "Fibroblast; [2]", "value": "7% and 28%"}]}
{"smiles": "NCCc1cn(S(=O)(=O)c2c(Cl)nc3sccn23)c2ccccc12.O=C(O)C(=O)O", "values": [{"measurement": "Population Mitochondria Different-Phenotype (%)", "setting": "Fibroblast; [5]", "value": "3% and 17%"}]}
{"smiles": "CN(C)C(=O)Cn1cc(-c2ccc(-c3nnc4ccccn34)cc2)cn1", "values": [{"measurement": "Population Fragmented Nuclei (%)", "setting": "Fibroblast; [4]", "value": "8% and 31%"}, {"measurement": "Population Fragmented Nuclei (%)", "setting": "Fibroblast; [2]", "value": "10% and 36%"}]}
{"smiles": "Cc1cc(C)cc(C(=O)NOCCCCCC(=O)NO)c1", "values": [{"measurement": "Population Tubulin-Different-Phenotype (%)", "setting": "HEK-293T; [4]", "value": "8.14% and 28.57%"}, {"measurement": "Population Mitochondria Different-Phenotype (%)", "setting": "HEK-293T; [2]", "value": "28.21% and 8.33%"}, {"measurement": "Population Tubulin-Different-Phenotype (%)", "setting": "HEK-293T; [5]", "value": "13.23% and 54.02%"}, {"measurement": "Population Mitochondria Different-Phenotype (%)", "setting": "HEK-293T; [3]", "value": "44.94% and 10.94%"}, {"measurement": "Population Fragmented Nuclei (%)", "setting": "Fibroblast; [2]", "value": "14.22% and 3.76%"}, {"measurement": "Population Mitochondria Different-Phenotype (%)", "setting": "Fibroblast; [5]", "value": "21.14% and 6.84%"}, {"measurement": "Population Fragmented Nuclei (%)", "setting": "Fibroblast; [3]", "value": "21.18% and 5.29%"}, {"measurement": "Population Mitochondria Different-Phenotype (%)", "setting": "Fibroblast; [3]", "value": "16.24% and 5.19%"}, {"measurement": "Population Mitotic Cells (%)", "setting": "Fibroblast; [3]", "value": "55.81% and 4.65%"}]}
{"smiles": "Cc1cc(NC(=O)c2cccc(NC(=O)/C=C/CN(C)C)c2)ccc1Nc1nccc(-c2cccnc2)n1", "values": [{"measurement": "Population Pyknosed Nuclei (%)", "setting": "U2OS; [6]", "value": "7.11% and 22.09%"}, {"measurement": "Population Mitochondria Different-Phenotype (%)", "setting": "U2OS; [4]", "value": "12.39% and 64.47%"}, {"measurement": "Population Mitochondria Different-Phenotype (%)", "setting": "U2OS; [1]", "value": "0.2% and 12.5%"}, {"measurement": "Population Healthy Nuclei (%)", "setting": "U2OS; [2]", "value": "35.74% and 10.53%"}, {"measurement": "Total Cell Count", "setting": "U2OS; [5]", "value": "976 and 307"}, {"measurement": "Population Membrane Permeable-Phenotype (%)", "setting": "U2OS; [3]", "value": "9.09% and 42.11%"}, {"measurement": "Population Mitochondria Different-Phenotype (%)", "setting": "U2OS; [3]", "value": "22.73% and 5.26%"}, {"measurement": "Population Tubulin-Different-Phenotype (%)", "setting": "U2OS; [3]", "value": "50% and 15.79%"}]}
{"smiles": "COc1cc2nc(N3CCN(C(=O)COc4c(OC)cccc4C(C)C)CC3)nc(N)c2cc1OC.Cl.Cl", "values": [{"measurement": "Population Mitochondria Different-Phenotype (%)", "setting": "Fibroblast; [2]", "value": "17% and 5%"}]}
